The whole screen tested about 48,000 compounds, of which about 120 (0.25%) were called active. Not shown: some 4% with an inconclusive outcome. Calls come from the whole dose curve; as a rule, active = well fitted activation curve with a large enough effect; inconclusive = small, poorly fitted or top-dose-only effect, or another doubt; inactive = no such curve, though single readings can be large or run the other way. The list shows a part of the results.
assay: Primary qHTS for Identification of Small Molecule Activators of Huntingtin-Antisense Promoter Activity; conditions: HEK293 HTT-AS promoter firefly luciferase reporter (activity 0% = vehicle and -100% = no light), 24 h; series mostly up to 57.5 µM; activity change, positive = activation: at the top concentration; note: nearly all actives have a fitted effect of over 55% in size
Procedure, shortened: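 HEK293 cells carrying firefly luciferase reporters were seeded at 2,500 per well in Opti-MEM and cultured for 24 h. They were then treated with compounds at up to 57.5 uM final for 24 h at 37 degrees C before Dual-Glo luminescence readout.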

| SMILES | activity change, positive = activation |
| --- | --- |
| COc1ccc2c(c1)c1c(c(=O)n(-c3ccc(F)c(Cl)c3)c(=O)n1Cc1cccc(C)c1)n2C | inactive: -9.78% |
| CCOc1ccc2c(c1)c(=O)c(C(=O)c1ccccc1)cn2Cc1ccccc1 | inactive: -0.452% |
| Cc1ccc(C(=O)Nc2c(C(=O)NC(C)(C)C)oc3ccccc23)cc1 | inactive: -13.5% |
| CCCS(=O)(=O)c1nc(S(=O)(=O)c2ccc(C)cc2)c(N(CC)CC)s1 | inactive: -12.8% |
| CCOC(=O)c1ccc(NC(=O)CSc2c(C(C)C)cnc3c2c(=O)n(C)c(=O)n3C)cc1 | inactive: -17.1% |
| Cc1cc(C)c2c(CC(=O)Nc3ccc(F)cc3)coc2c1 | inactive: -13.7% |
| Cc1ccc(-n2nc(C)c3nc(CCC(=O)Nc4cccc(C)c4C)c(=O)n(C)c32)cc1 | inactive: -10.5% |
| COc1ccc(CNC(=O)Cn2nc3c(cc2=O)CCCC3)cc1 | inactive: -5.48% |
| Cc1cccc(N2C(=O)N(Cc3cc(=O)n4ccccc4n3)c3ccccc3S2(=O)=O)c1 | inactive: -17.5% |
| Cc1nnc(NC(=O)CSc2nc3c([nH]c4ccccc43)c(=O)n2-c2ccc(Cl)cc2)s1 | inactive: -33.3% |
| Cc1ccc2[nH]c(=O)c3cc(C(=O)N(C)c4ccc(Br)cc4)sc3c2c1 | inactive: -5.81% |
| CC(=O)Nc1cc(C(=O)NCc2ccccc2Cl)ccc1Sc1ccc(F)cc1 | inactive: -17.2% |
| Cc1ccc(NC(=O)c2cc(S(=O)(=O)N3CCCCC3)c[nH]2)cc1N(C)C | inactive: -1.29% |
| Cc1cc(C)cc(NC(=O)c2cc(S(=O)(=O)NCCC3=CCCCC3)ccc2F)c1 | inactive: -22% |
| Cc1cccc(C(=O)Nc2ccc3oc(-c4cccc5c(Br)cccc45)nc3c2)c1 | inactive: 1.25% |
| CCc1ccc(NC(=O)C2CCN(c3nc(-c4ccc(OC)cc4)no3)CC2)cc1 | inactive: -48.3% |
| CCOc1ccc2nc(N3CCN(C(=O)c4ccc5c(c4)CCCC5)CC3)sc2c1 | inactive: -9.29% |
| Cc1cc(OCC(=O)Nc2ccc(C(=O)OC3CCCCC3)cc2)cc(C)c1Cl | inactive: -13.9% |
| COc1ccc(CCNCc2c(C(=O)O)c(C)n(Cc3c(F)cccc3Cl)c2C)cc1OC | inactive: -7.44% |
| COc1ccc2c(c1)CC(C(=O)NCc1ccc(F)cc1)CO2 (stereo not given) | inactive: -11% |

| SMILES | activity change, positive = activation |
| --- | --- |
| Clc1ccc2c(c1)Nc1ccccc1S2 | inactive: -1.04% |
| COc1cc(C(=O)NCCCc2nc3ccccc3n2CC(C)C)cc(OC)c1OC | inactive: -13.9% |
| O=C(C1CCN(S(=O)(=O)c2ccc(Br)s2)CC1)N1CCN(c2cccc(Cl)c2)CC1 | inactive: -29.6% |
| Cc1ccc(Sc2c(C)nn(C(=O)COc3ccccc3Br)c2C)cc1 | inactive: -41.7% |
| CCOc1ccc(CCNC(=O)c2sc3nc4n(c(=O)c3c2C)CCCC4)cc1OCC | inactive: -5.2% |
| CCOC(=O)c1ccc(NC(=O)CCn2c(=O)c3cccn3c3ccccc32)cc1 | inactive: -2.7% |
| COc1ccc(-n2c(SCC(=O)Nc3ccc(Cl)c(C)c3)nc3n[nH]c(C)c3c2=N)cc1 | inactive: -29.5% |
| NC(=O)c1c(NC(=O)c2nc(SCc3ccccc3F)ncc2Cl)sc2c1CCCC2 | inactive: 13.5% |
| CCOC(=O)c1c(NC(=O)c2ccc(S(=O)(=O)N3CCC(C)CC3)cc2)sc2c1CCN(C)C2 | inactive: -61.3% |
| CCOC(=O)c1sc2ncn(CC(=O)Nc3ccc(N(C)C)cc3)c(=O)c2c1C | inactive: -11% |
| Cc1cc(C)cc(-n2ccnc2SCC(=O)Nc2nnc(C)s2)c1 | inactive: -34.3% |
| O=C(Nc1nc2ccc(S(=O)(=O)N3CCCC3)cc2s1)c1cccc(F)c1 | inactive: -3.02% |
| COc1ccc(OC)c(CNC(=O)c2nn(-c3ccc(OC)c(Cl)c3)c(=O)c3c2c2ccccc2n3C)c1 | inactive: -3.53% |
| CCCCn1cc(S(=O)(=O)c2ccc(C)c(C)c2)c(=O)c2cc(F)c(N3CCCC(C)C3)cc21 (stereo not given) | inactive: -4.16% |
| CCS(=O)(=O)N1CCc2cc(C(=O)Nc3ccc(OC)c(Cl)c3)ccc21 | inactive: -22.5% |
| CCOc1ccc2nc(N3CCCC(C(=O)Nc4c(C)cccc4C)C3)sc2c1 (stereo not given) | inactive: 29.5% |
| COC(=O)c1nc2n(n1)C(c1cccc(Cl)c1)C(C(=O)Nc1ccccc1OC)=C(C)N2 (stereo not given) | inactive: -8.74% |
| Cc1cccc(C)c1NC(=O)C(NS(=O)(=O)c1ccc2c(c1)CCC(=O)N2)c1ccccc1 (stereo not given) | inactive: 14.2% |
| Cc1c2cnn(-c3ccccc3)c(=O)c2c(C)n1CCCC(=O)Nc1cc(F)ccc1F | inactive: -14.1% |
| CCc1ccc(CNC(=O)CN2C(=O)c3cccnc3Oc3ccc(Cl)cc32)cc1 | inactive: -22.2% |

| SMILES | activity change, positive = activation |
| --- | --- |
| O=C(CSc1nc2ccccc2nc1Cc1ccc(Cl)cc1)N1CCc2ccccc21 | inactive: -7.3% |
| CCN(c1cccc(C)c1)S(=O)(=O)c1nnc(NC(=O)C2CCCCC2)s1 | inactive: -11.2% |
| O=C(CSC1=Nc2ccccc2C2=NC(CC(=O)NC3CCCCC3)C(=O)N12)Nc1ccc(F)cc1 (stereo not given) | inactive: -23.8% |
| CCOc1ccc(NC(=O)CSc2ncc3c(n2)-c2ccc(Cl)cc2N(Cc2ccccc2)S3(=O)=O)cc1 | inactive: -0.46% |
| COc1ccc(-c2nc3sc(CCNC(=O)c4cc(OC)c(OC)c(OC)c4)c(C)n3n2)cc1 | inactive: 2.63% |
| COc1ccc(C)cc1NC(=O)c1oc2ccc(S(=O)(=O)N3CCCCC3)cc2c1C | inactive: 15.3% |
| Cc1ccc(C)c(N2CCN(S(=O)(=O)c3cc(Br)cc4c3N(C(=O)C3CC3)CC4)CC2)c1 | inactive: -3.28% |
| CCOc1ccc(C2c3[nH]c4ccccc4c3CCN2C(=O)CCc2ccccc2)cc1 (stereo not given) | inactive: -23.5% |
| Cn1c(=O)c(=O)n(C)c2cc(N3CCOCC3)c(NS(=O)(=O)c3ccc(Cl)cc3)cc21 | inactive: -13.4% |
| COC(=O)c1scc(-c2ccc(C)cc2)c1S(=O)(=O)Nc1cc(Cl)ccc1C | inactive: -35.6% |
| CCc1ccc(S(=O)(=O)c2cn(CC(=O)Nc3ccc(C)cc3)c3ccccc3c2=O)cc1 | inactive: -12.9% |
| CCOC(=O)c1[nH]c2c(c1Cc1ccccc1)C(=O)CC(c1ccc(Cl)cc1)C2 (stereo not given) | inactive: -21.1% |
| COc1cccc(C(c2sc3nc(-c4ccco4)nn3c2O)N2CCC(O)CC2)c1 (stereo not given) | inactive: -0.321% |
| CCOc1ccc(CCNC(=O)c2ccc3c(Cl)c4c(nc3c2)CCCC4)cc1 | inactive: -22.6% |
| CCOC(=O)c1ccc(NC(=O)c2c(NC(C)=O)sc3c2CCC(C)C3)cc1 (stereo not given) | inactive: -33.6% |
| O=S(=O)(NCCc1nnc2ccc(SCc3ccc(Cl)cc3Cl)nn12)c1ccccc1 | inactive: -5.32% |
| CCOc1ccccc1NC(=O)c1sc2nc3n(c(=O)c2c1C)CCCCC3 | inactive: -7.07% |
| Cc1ccc(-c2nc3scc(CCNC(=O)Cc4ccc(Cl)cc4)n3n2)cc1 | inactive: -25.4% |
| CCOc1ccc(N(C(=O)CC(C)C)S(=O)(=O)c2ccc3c(c2)oc(=O)n3C)cc1 | inactive: -46.7% |
| COc1ccc(CCNC(=O)CCCn2c(=O)c3ccccc3n(Cc3cccc(Cl)c3)c2=O)cc1OC | inactive: -34.5% |
